Here are results for 57 compounds from article PMC4336329 (PLoS ONE, 2015).

Hit rate of the full screen: of about 310,000 compounds, about 2,200 (0.71%) showed an effect of 50% or more. The effect is printed as a negative number. Some of the results follow.

In this assay the target is human ether-à-go-go-related gene (hERG) potassium channel (human, UniProt Q12809). The assay can be described thus: primary screen, population patch clamp on CHO cells stably expressing hERG.
Sequence of human ether-à-go-go-related gene (hERG) potassium channel (Q12809 whole entry, looked up): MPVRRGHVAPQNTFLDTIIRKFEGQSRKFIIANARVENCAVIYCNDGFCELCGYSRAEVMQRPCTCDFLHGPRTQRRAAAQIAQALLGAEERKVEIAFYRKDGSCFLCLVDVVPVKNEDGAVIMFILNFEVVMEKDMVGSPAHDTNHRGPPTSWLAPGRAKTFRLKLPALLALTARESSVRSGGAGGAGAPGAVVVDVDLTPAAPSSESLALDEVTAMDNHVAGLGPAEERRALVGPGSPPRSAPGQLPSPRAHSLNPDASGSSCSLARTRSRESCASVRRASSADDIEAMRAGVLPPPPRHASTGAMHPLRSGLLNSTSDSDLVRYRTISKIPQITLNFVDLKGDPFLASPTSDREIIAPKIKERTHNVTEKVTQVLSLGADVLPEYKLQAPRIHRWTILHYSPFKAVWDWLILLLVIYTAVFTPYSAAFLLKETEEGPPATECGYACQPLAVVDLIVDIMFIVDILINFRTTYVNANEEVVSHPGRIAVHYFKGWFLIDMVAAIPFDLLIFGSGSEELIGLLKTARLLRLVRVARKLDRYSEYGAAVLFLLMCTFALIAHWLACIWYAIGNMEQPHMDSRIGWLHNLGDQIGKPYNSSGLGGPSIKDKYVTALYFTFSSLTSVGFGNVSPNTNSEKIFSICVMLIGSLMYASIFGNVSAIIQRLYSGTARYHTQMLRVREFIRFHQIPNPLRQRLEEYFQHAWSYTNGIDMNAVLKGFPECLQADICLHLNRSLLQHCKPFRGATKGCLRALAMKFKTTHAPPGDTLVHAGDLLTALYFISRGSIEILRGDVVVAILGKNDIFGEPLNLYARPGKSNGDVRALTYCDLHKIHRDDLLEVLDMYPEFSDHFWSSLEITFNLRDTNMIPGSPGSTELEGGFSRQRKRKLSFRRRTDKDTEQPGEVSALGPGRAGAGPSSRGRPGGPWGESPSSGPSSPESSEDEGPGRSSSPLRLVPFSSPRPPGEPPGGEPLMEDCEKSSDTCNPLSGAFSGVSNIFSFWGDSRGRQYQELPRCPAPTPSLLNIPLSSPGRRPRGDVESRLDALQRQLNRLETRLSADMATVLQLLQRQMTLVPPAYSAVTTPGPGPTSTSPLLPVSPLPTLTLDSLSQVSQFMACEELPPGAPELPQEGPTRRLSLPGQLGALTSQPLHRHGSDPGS
Take `CCCCC(=O)Nc1cccc(-c2nn3c(C)nnc3s2)c1`: the “hERG current change (%, negative = inhibition) at 1uM” value is -1.23%.
The figure for `CN(C(=O)COC(=O)Cc1c(Cl)cccc1Cl)C1CCS(=O)(=O)C1` (stereo not drawn) is 4.6%; for `CC1CN(C(=O)c2ccncc2)CC(C)O1` (stereo not drawn) it is 8.91%.
The figure for `CC(=O)N1CCN(C(=O)CCc2nc3ccccc3c(=O)[nH]2)CC1` is 6.24%.
Turning to `O=S(=O)(c1ccccc1Cl)N1CCCC1c1nc(-c2cccc(Cl)c2)no1` (stereo not drawn), the “hERG current change (%, negative = inhibition) at 1uM” value is -0.117%.
Turning to `Cc1cccc2c1N(CC(=O)OC(C)C)C(=O)C2=O`, the “hERG current change (%, negative = inhibition) at 1uM” value was 13.1%.
`O=C(O)c1ccccc1N(Cc1ccccc1)C(=O)CO/N=C/c1ccccc1`: the “hERG current change (%, negative = inhibition) at 1uM” value is reported as 3.94%.
For the compound `COc1ccc(CNC(=O)/C(C)=C\C(=O)O)cc1`, the “hERG current change (%, negative = inhibition) at 1uM” value is listed as 10.7%.
To `O=C(Nc1nc2c(Br)cc(Br)cc2c(=O)s1)C1CCC1` belongs 11%; to `Cc1cccc(OCC(=O)NCCNC(=O)c2ccccn2)c1`, 23.9%; to `Cc1cc(/C=C2\SC(=O)N(C)C2=O)c(C)n1-c1ccc(S(N)(=O)=O)cc1`, 14.9%.
The figure for `Cc1ccc(S(=O)(=O)NC(=O)N2CCCC(C)(C)C2)cc1` is 9.36%; for `O=C(CN1CC=C(c2ccccc2)CC1)NC(=O)NC1CCCCC1` it is 5.7%; for `Cc1ccc(NC(=O)c2nc[nH]c2C(=O)N[C@@H](CCCCNC(=O)OC(C)(C)C)C(=O)OC(C)(C)C)cc1` it is 5.01%.
To `O=C(NCc1ccco1)c1ccc(COc2ccc(Cl)cc2)cc1` belongs -0.588%; to `CN(C)S(=O)(=O)c1ccc(C(=O)Nc2ccccc2F)cc1`, 4.74%.
In the case of `COc1ccc(NC(=O)N2CCCC2C(=O)NCc2ccccc2Cl)cc1` (stereo not drawn), the “hERG current change (%, negative = inhibition) at 1uM” value is on record as 10.8%.
The figure for `COc1ccc(/C=N/Nc2nc3ccccc3[nH]2)c(OC)c1OC` is 15.1%; for `Cc1ccc(C(=O)NCC(=O)Nc2ccccc2C(F)(F)F)cc1` it is 7.76%; for `COc1ccc(NC(=O)CCN2CCN(C/C=C/c3ccccc3)CC2)cc1` it is -37.8%.
For the compound `CCOc1ccc(/C=N/Nc2nc(N3CCCC3)nc(N3CCCC3)n2)cc1OC`, the “hERG current change (%, negative = inhibition) at 1uM” value worked out at 6.01%.
To `CCCCNC(=O)c1cc(-c2ccc(F)cc2)on1` belongs -13.6%.
The figure for `COc1ccc(N(CC(=O)NCc2ccc(F)cc2)S(=O)(=O)c2c(C)n[nH]c2C)cc1` is 5.8%; for `CCOc1ccc(NC(=O)CN2CCN(CC(=O)Nc3ccc(C(=O)OC)cc3)CC2)cc1` it is -48%; for `CCSc1nnc(NC(=O)c2ccc(C)cc2)s1` it is 10.3%.
The figure for `O=C(CCSc1ccccn1)c1ccccc1` is 8.49%; for `CCOC(=O)CNC(=O)CSc1nc(-c2ccc(C)cc2)ns1` it is 10.4%; for `O=C(Nc1ccc(Br)cc1)Nc1ccccc1Cl` it is 8.2%.
With `O=c1c2cc(Br)cc(Br)c2oc2nc3n(c(=O)c12)CCCS3`, the “hERG current change (%, negative = inhibition) at 1uM” value is given as -1.16%.
To `Cc1cc(C)cc(NC(=O)CSc2nnc(-c3ccc(S(=O)(=O)N4CCCC4)cc3)o2)c1` belongs 1.66%; to `Cc1ccccc1OCC(=O)NNC(=O)CSc1nc(N)cc(N)n1`, 8.37%; to `Cc1nn(-c2ccccc2Cl)c2sc(C(=O)Nc3nnc(C4CC4)s3)cc12`, 14.7%.
To `COc1ccc(CCNC(=O)CCNC(=O)c2ccc(Cl)cc2)cc1OC` belongs 7.25%; to `C/C(CC(=O)Nc1cccc(F)c1)=N\NC(=O)c1ccncc1`, 17.4%.
Consider `CCOC(=O)c1cccc(NC(=O)CSc2nc3ccccc3c(=O)n2CCOC)c1`, for which the “hERG current change (%, negative = inhibition) at 1uM” value is on record as -17.8%.
With `Cc1cc(O)c(N=Cc2cc3c(cc2[N+](=O)[O-])OCO3)cc1C`, the “hERG current change (%, negative = inhibition) at 1uM” value was determined as 15.8%.
The figure for `O=C(COc1ccc(Cl)cc1)NCCCNC(=O)c1ccccn1` is 1.94%; for `CN(C)S(=O)(=O)c1ccc(N2CCCC2)c(C(=O)NCC2CCCCC2)c1` it is 15.1%.
To `O=C(COC(=O)Cc1ccc(Cl)c(Cl)c1)NCc1ccco1` belongs 8.65%.
To `CN(CC(=O)N1CCOCC1)S(=O)(=O)c1ccc2ccccc2c1` belongs 15.9%; to `COC(=O)c1c(NC(NC(=O)C(C)C)C(Cl)(Cl)Cl)sc2c1CCCC2` (stereo not drawn), 3.52%.
Turning to `Cc1cccc(Cc2c(C)nc3nc(SCC(=O)NCc4ccco4)nn3c2C)c1`, the “hERG current change (%, negative = inhibition) at 1uM” value is recorded as -4.6%.
The figure for `Cc1nc(C)c(C(=O)N2CCCC(C(=O)c3cc(F)ccc3F)C2)s1` (stereo not drawn) is 13.6%.
Turning to `COc1ccc2c(c1)cc(C(=O)N[C@@H](Cc1ccccc1)C(=O)O)n2C`, the “hERG current change (%, negative = inhibition) at 1uM” value is 22.4%.
The figure for `CCCOc1ccc(C(=O)NCC2OCCc3ccccc32)cc1OC` (stereo not drawn) is 5.57%; for `Cc1ccc(CNc2ncnc3cc(Cl)ccc23)cc1` it is 12.5%; for `COc1ccc(C(=O)NC(CC(=O)O)c2cc([N+](=O)[O-])ccc2Cl)c(SC)c1` (stereo not drawn) it is 17%.
For `CCc1cc(=O)oc2cc(OC(C)C(=O)NCC(O)c3ccccc3)c(Cl)cc12` (stereo not drawn), the “hERG current change (%, negative = inhibition) at 1uM” value came out at 10.3%.
Consider `O=C(Nc1ccc(N2CCOCC2)c(Cl)c1)c1ccc(F)cc1`, for which the “hERG current change (%, negative = inhibition) at 1uM” value is recorded as 3.51%.
As for `CCOC(=O)c1sc2nc3n(c(=O)c2c1C)CCCCC3`, the “hERG current change (%, negative = inhibition) at 1uM” value is on record as 2.34%.
To `C/C(=N\NC(=O)c1c(Br)c(C)nn1C)c1ccc(NC(=O)c2ccoc2C)cc1` belongs 15.3%.
To `O=c1oc(-c2cccc(C(F)(F)F)c2)nn1-c1ccc(C(F)(F)F)cn1` belongs 5.56%; to `COc1ccc(C2(C)NC(=O)N(CC(=O)N3CCc4ccccc43)C2=O)cc1OC` (stereo not drawn), 4.02%.
`Cc1cc(OCc2cc(C(=O)N(C)Cc3nonc3C)no2)cc(C)c1Cl`: the “hERG current change (%, negative = inhibition) at 1uM” value was 18.2%.
The figure for `CCN(CC(=O)Nc1c(F)cccc1F)C(=O)Cc1ccsc1` is 5.42%.
As for `CCOc1ccc(CCNC(=O)COC(=O)c2nc(Cl)ccc2Cl)cc1OCC`, the “hERG current change (%, negative = inhibition) at 1uM” value is recorded as 7.43%.
As to `Nc1nnn(CC(=O)N/N=C/c2ccccc2)n1`, the “hERG current change (%, negative = inhibition) at 1uM” value turned out to be 10.6%.
